PubChem BioAssay AID493208 (National Center for Advancing Translational Sciences (NCATS), 2011)
Out of some 44,000 compounds screened, about 340 (0.77%) were called active. Roughly 5% stayed inconclusive and do not appear here. Calls follow the shape of the dose curve; as a rule, active = well fitted inhibition curve with a large enough effect; inconclusive = small, poorly fitted or top-dose-only effect; inactive = flat fitted curve, though single readings scatter. The list shows a part of the results.

Experiment: Acumen qHTS Assay for Inhibitors of the mTORC1 Signaling Pathway in MEF (Tsc2-/-, p53-/-) Cells: Sytravon;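 also: plate controls were DMSO for no effect and rapamycin for full effect; nearly all actives have a fitted effect of over 50% in size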
Conditions: phospho-rpS6 immunofluorescence/PI, 24 h; series mostly up to 38.3 µM; activity change, negative = inhibition: at the top concentration
Outline: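 Read-out: phospho-S6 Alexa-488 intensity over PI intensity per well, scored as % active cells using thresholds from rapamycin (7.5 nM) and DMSO controls. Tsc2-/-, p53-/- MEFs exposed to compound for 24 h; PI cell count recorded as viability.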

Structure (SMILES) | activity change, negative = inhibition
COc1cccc(NC(=O)CSc2nc(=O)[nH]c3c2CCCC3)c1 | inactive: -3.11%
COc1ccc(Br)cc1CNCc1c(C(=O)O)c(C)n(Cc2ccccc2C)c1C | inactive: 0.466%
CCOc1ccc(-c2cc3nc(C4CCN(C(=O)OC(C)(C)C)CC4)c(C(=O)Nc4cccc(C(F)(F)F)c4)cn3n2)cc1 | inactive: -18.1%
Cc1cc2c(cc1S(=O)(=O)CCC(=O)N1CCN(c3ccccc3)CC1)OCC(=O)N2 | inactive: 2.56%
CCCCCOC(=O)CSc1nc2sc3c(c2c(=O)n1Cc1ccccc1)CC(C)(CC)OC3 (configuration not stated) | inactive: 11.7%
CCS(=O)(=O)N1CC(=O)N(c2cc(Cl)ccc2C)C(C)(C(=O)NC2CCCCCC2)C1 (configuration not stated) | inactive: 2.06%
COc1ccc(-c2nc3scc(CCNS(=O)(=O)c4cccs4)n3n2)cc1 | inactive: -12.8%
COc1ccc(CNC(=O)CCc2c(C)nn(-c3ccc(N4CCCC4)nn3)c2C)cc1 | inactive: 7.21%
Cc1ccc(-n2c(=O)c3c4c(sc3n(CC(=O)C(C)(C)C)c2=O)CCCCC4)cc1C | inactive: -9.34%
COc1cccc(C(=O)NC2=NC(c3ccccc3F)CC(=O)N2)c1 (configuration not stated) | inactive: 3.89%
COc1cc(Cl)c(NS(=O)(=O)c2cc3[nH]c(=O)c(=O)[nH]c3cc2C)c(OC)c1 | inactive: -1.25%
CCOC(=O)Cc1ccc(NC(=O)Nc2nnc(N3CCCCC3C)s2)cc1 (configuration not stated) | inactive: -8.07%
O=C(Nc1ccc2c(c1)CCCN2C(=O)c1cccs1)c1ccccc1C(F)(F)F | inactive: 0%
COC(=O)c1ccc(NC(=O)c2c(-c3ccccc3)c(-c3ccccc3)nn(C)c2=O)cc1 | inactive: 4.04%
CCC(=O)N1CCc2cc(Br)cc(S(=O)(=O)NCCc3ccc(C)cc3)c21 | inactive: -22.5%
CCCN(C(=O)c1cc2c(s1)-c1ccccc1OC2)c1ccc(C(C)C)cc1 | inactive: 5.7%
Cc1cccc(OC(=O)c2snnc2C)c1C | inactive: 1.51%
CCc1ccc(Nc2nc(-c3cc4cccc(OC)c4oc3=O)c(CC)s2)cc1 | inactive: -10.3%
CCOC(=O)c1ccc(NC(=O)Nc2cc3c(cc2N2CCCCC2)n(CC)c(=O)n3CC)cc1 | inactive: 2.05%
Cc1ccc(NC(=O)C2CCC(CNS(=O)(=O)c3cccs3)CC2)cc1C (configuration not stated) | inactive: -18.6%
CCOC(=O)C1CCN(C(=O)c2ccc(C)c(NC(=O)c3nsc4ccccc34)c2)CC1 | inactive: 1.1%

Structure (SMILES) | activity change, negative = inhibition
CCC(=O)N1c2ccc(S(=O)(=O)CCC(=O)NCc3ccc(OC)cc3)cc2CC1C (configuration not stated) | inactive: -0.999%
O=S(=O)(Nc1ccc(OC(F)(F)F)cc1)c1ccc(N2CCCCS2(=O)=O)cc1 | inactive: 5.7%
Cc1cc(C)c(S(=O)(=O)NCC(c2ccco2)S(=O)(=O)c2ccccc2)c(C)c1 (configuration not stated) | inactive: -5.39%
CCc1cccc(C)c1Nc1c(-c2cccs2)nc2ncccn12 | inactive: -7.89%
O=C(Cn1c(=O)c2ccccc2n(CC(=O)Nc2ccccc2F)c1=O)NCCc1ccccc1 | inactive: -11.7%
Cc1cc(C)c(NC(=O)CCN2CCCCC2)c(C)c1 | inactive: 2.14%
CC(C)c1ccc(S(=O)(=O)NCc2nc3cccnc3n2Cc2ccc(F)cc2)cc1 | inactive: -0.588%
CC1=C(C(=O)Nc2cc(C)cc(C)c2)C2(CCCCC2)OC1=O | inactive: 1.87%
COc1ccc(NC(=O)COCc2cc(-c3ccco3)on2)cc1Cl | inactive: -2.38%
CCc1ccc(-n2c(=O)c3sc4ccccc4c3n(CC(=O)NC3CCCC3)c2=O)cc1 | inactive: 0.805%
COc1cc(OC)c(NC(=O)CCc2nc(C3=CCN(Cc4cccc(Cl)c4)CC3)no2)cc1Cl | inactive: -4.14%
COc1ccc(CCNC(=O)CCc2c(C)c3ccc(O)c(C)c3oc2=O)cc1 | inactive: 3.15%
Cc1nc2nc(CNC(=O)OC(C)(C)C)nn2c(C)c1CCC(=O)NCc1ccccc1Cl | inactive: -6.88%
Nc1nc(N)c(S(=O)(=O)c2ccccc2)c(Nc2ccccc2)n1 | inactive: 4.34%
COc1cccc(C2C(=O)N(C3CCCCC3)CC(=O)N2CCc2ccc(OC)c(OC)c2)c1 (configuration not stated) | inactive: 10.5%
CCc1ccc2c(c1)c(=O)c(S(=O)(=O)c1ccc(F)cc1)cn2CC(=O)Nc1ccccc1OC | inactive: 1.35%
COc1ccc(-c2cc(C(=O)Oc3ccc(Br)cc3)c3ccccc3n2)cc1 | inactive: 3.88%
Cc1ccc(NC(=O)c2oc3ccccc3c2NC(=O)C2CCCCC2)cc1 | inactive: 3.48%
CCOC(=O)C1=C(CN(CC)Cc2ccccc2)NC(=O)NC1c1ccc(OC)cc1 (configuration not stated) | inactive: 5.02%
COC(=O)c1c(-c2ccc(Cl)cc2)noc1N1CCN(c2ccccc2F)CC1 | inactive: 0.755%
CCCCNC(=O)c1ccc2c(c1)NC(=O)C(C(C)C)N2 (configuration not stated) | inactive: -2.02%

Structure (SMILES) | activity change, negative = inhibition
COc1ccc2c(c1)c1c(c(=O)n(-c3ccc(F)c(Cl)c3)c(=O)n1Cc1ccccc1F)n2C | inactive: 0.864%
COc1ccccc1NC(=O)C(=O)c1cc(C)n(-c2cc(C)cc(C)c2)c1C | inactive: -0.856%
N#Cc1c(-n2ncnc2-c2cccc(Cl)c2)sc2c1CCCCC2 | inactive: 11.6%
O=C1CN(C(=O)c2cccc(Br)c2)C(c2ccccc2)c2cc(Cl)ccc2N1 (configuration not stated) | inactive: -0.142%
CCOc1cccc(-c2nc3ccccc3c(=O)o2)c1 | inactive: -4.6%
COc1cccc(C(=O)Nc2nc(-c3nnn(-c4cc(C)ccc4C)c3C)ns2)c1 | inactive: 6.19%
Cc1cc(C)c2oc(C(=O)NCCc3ccc(S(N)(=O)=O)cc3)cc(=O)c2c1 | inactive: 1.76%
CC(C)(C)c1ccc(C(=O)NC2=NC(c3cccc(F)c3)CC(=O)N2)cc1 (configuration not stated) | inactive: -10.3%
O=C1CC(c2ccccc2)Cc2[nH]c(=O)c(-c3nc(-c4ccc(Cl)c(Cl)c4)cs3)cc21 (configuration not stated) | inactive: -1.55%
COc1ccc(Cl)cc1NC(=O)C(=O)NCc1ccc(Cl)cc1 | inactive: -0.731%
O=C(CNS(=O)(=O)c1ccc(Br)s1)N1CCN(c2ccc(F)cc2)CC1 | inactive: -9.46%
CCS(=O)(=O)NCCc1sc2nc(-c3ccc(OC)cc3)nn2c1C | inactive: -1.86%
Cc1ccc(NC(=O)N2CCN(C(=O)c3nsc4ccccc34)CC2)cc1C | inactive: 8.32%
COCCNS(=O)(=O)c1cc(-c2nn3c(C)nnc3c3ccccc23)ccc1C | inactive: -0.128%
Cc1cccc(CCn2c(=O)c3ccccc3n(Cc3ccccc3C)c2=O)c1 | inactive: 0.398%
Cc1ccc(C(=O)c2sc(Nc3ccc(F)cc3)c(C#N)c2N)cc1 | inactive: -6.98%
COc1cccc(NC(=O)CN2C=NS(=O)(=O)c3ccccc32)c1 | inactive: -6.12%
CCOc1ccccc1NC(=O)N1CC(C)Oc2ccc(Cl)cc21 (configuration not stated) | inactive: 9.32%
CCOC(=O)c1cnc(NCc2ccc(OC)cc2OC)c2ccccc12 | inactive: -18.2%
Cc1ccc(OC(=O)CSc2nnc(-c3ccc4c(c3)OCO4)o2)c(C)c1 | inactive: 2.02%
